{
  "source": "PubChem BioAssay AID504332",
  "about": "(National Center for Advancing Translational Sciences (NCATS), 2011)",
  "note": "The campaign covered roughly 350,000 compounds. About 31,000 (8.9%) were called active. Inconclusive results, whose numbers are uncertain, are shown with a selection of clear calls. Calls follow the shape of the dose curve; as a rule, active = well fitted inhibition curve with a large enough effect; inconclusive = small, poorly fitted or top-dose-only effect; inactive = no such curve, though single readings can be large or run the other way. Where the call is inconclusive, the potency comes from a doubtful curve fit. % is scaled to controls: 0 for no effect and ±100 for the full control effect; potency is read from the fitted curve at half-maximal effect; tags tell the direction and shape of the fitted curve.",
  "data": [
    {"target": "Histone-lysine N-methyltransferase EHMT2 (Homo sapiens) (UniProt Q96KQ7)", "sequence (Q96KQ7 whole entry, looked up)": "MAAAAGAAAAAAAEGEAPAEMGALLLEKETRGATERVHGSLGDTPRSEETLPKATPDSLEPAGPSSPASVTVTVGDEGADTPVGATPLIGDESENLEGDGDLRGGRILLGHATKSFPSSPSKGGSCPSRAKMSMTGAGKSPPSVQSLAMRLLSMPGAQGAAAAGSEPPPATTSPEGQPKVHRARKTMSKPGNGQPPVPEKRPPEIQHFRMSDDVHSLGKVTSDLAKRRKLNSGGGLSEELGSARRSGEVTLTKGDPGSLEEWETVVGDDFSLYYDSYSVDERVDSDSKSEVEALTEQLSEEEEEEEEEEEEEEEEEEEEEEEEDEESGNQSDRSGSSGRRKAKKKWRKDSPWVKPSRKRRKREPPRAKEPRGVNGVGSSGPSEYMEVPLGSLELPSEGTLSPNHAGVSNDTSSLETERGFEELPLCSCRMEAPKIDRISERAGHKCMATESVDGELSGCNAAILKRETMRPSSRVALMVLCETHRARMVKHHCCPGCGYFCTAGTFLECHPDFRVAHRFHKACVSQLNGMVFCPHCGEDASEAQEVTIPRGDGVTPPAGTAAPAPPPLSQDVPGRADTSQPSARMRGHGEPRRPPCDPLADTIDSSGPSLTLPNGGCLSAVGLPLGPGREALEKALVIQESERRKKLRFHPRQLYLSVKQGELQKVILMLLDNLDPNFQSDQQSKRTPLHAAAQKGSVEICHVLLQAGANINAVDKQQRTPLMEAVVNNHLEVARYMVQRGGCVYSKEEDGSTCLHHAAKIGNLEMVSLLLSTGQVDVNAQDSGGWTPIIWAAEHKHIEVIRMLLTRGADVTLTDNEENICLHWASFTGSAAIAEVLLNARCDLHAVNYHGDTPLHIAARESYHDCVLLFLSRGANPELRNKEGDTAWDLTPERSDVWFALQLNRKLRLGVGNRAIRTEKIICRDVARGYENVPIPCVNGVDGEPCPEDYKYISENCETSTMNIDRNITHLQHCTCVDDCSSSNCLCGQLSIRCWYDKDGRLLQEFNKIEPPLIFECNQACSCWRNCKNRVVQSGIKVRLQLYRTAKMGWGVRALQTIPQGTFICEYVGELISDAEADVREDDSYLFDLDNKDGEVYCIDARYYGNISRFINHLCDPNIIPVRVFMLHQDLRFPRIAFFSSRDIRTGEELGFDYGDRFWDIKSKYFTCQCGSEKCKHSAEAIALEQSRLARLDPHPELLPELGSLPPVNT", "assay": "qHTS Assay for Inhibitors of Histone Lysine Methyltransferase G9a; also: nearly all actives have a fitted effect of over 75% in size", "settings": "G9a H3K9 monomethylation, AlphaScreen, 2 h; activity, negative = inhibition: at 59 µM (top of the series) unless noted", "in_short": "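Methyltransferase reactions run at room temperature for 2 h (20 nM enzyme, 500 nM biotin-H3K9 peptide, 20 uM SAM) after a 15 min compound preincubation; product detected by AlphaScreen beads and anti-H3K9me1 antibody.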", "values": [
      {"compound": "O=C(CSc1nnc(-c2ccco2)n1Cc1ccccc1)NC(=O)NCc1ccco1", "Potency": "inactive"},
      {"compound": "O=S(=O)(Nc1ccc(O)c2ccccc12)c1cccs1", "Potency": "active: 7.08 µM"},
      {"compound": "CCOC(=O)N1CCc2c(sc(NC(=O)c3ccc(Cl)s3)c2C(N)=O)C1", "Potency": "active: 28.2 µM"},
      {"compound": "CCOC(=O)c1oc2cccc(O)c2c1CN1CCOCC1", "Potency": "inconclusive: 50.1 µM [inhibitor, partial curve, poor fit]"},
      {"compound": "COc1ccccc1N1C(=O)[C@@H]2[C@H](C1=O)[C@H](C(=O)c1ccc(OC(C)=O)cc1)N1N=CC=C[C@@H]21", "Potency": "active: 5.01 µM"},
      {"compound": "COc1ccccc1N1CCN(CC(O)c2ccccc2)CC1", "note": "(configuration not stated)", "Potency": "inactive"},
      {"compound": "CCCCN(CC)C(=O)C1CCC(CNS(=O)(=O)c2cccc3nsnc23)CC1", "note": "(configuration not stated)", "Potency": "inconclusive: 22.4 µM [inhibitor, partial curve, poor fit]"},
      {"compound": "COc1ccc(CC(=O)Nc2ccc(C(=O)Nc3ccccc3C(=O)O)cc2)cc1OC", "Potency": "inconclusive: 89.1 µM [inhibitor, single point]"},
      {"compound": "c1ccc(C2[C@H]3CN(Cc4cccnc4)[C@H](c4ccccc4)C34CC2(c2ccccc2)C4)cc1", "note": "(some centres not stated)", "Potency": "inactive"},
      {"compound": "CCc1ccc(C(=O)c2cn(CC(=O)Nc3cccc(C)c3C)c3nc(C)ccc3c2=O)cc1", "Potency": "inactive"},
      {"compound": "O=C(/C=C/c1ccco1)NC1=NCCS1", "Potency": "inconclusive: 35.5 µM [inhibitor, single point]"},
      {"compound": "Cc1ccc(CNC(=O)C2CCC(=O)N(CC3CCCCC3)C2)o1", "note": "(configuration not stated)", "Potency": "active: 44.7 µM"},
      {"compound": "COC(=O)C1=C(C)N(Cc2ccc(C)cc2)C(=O)/C1=C\\c1cc(OC)c(OC)c(OC)c1", "Potency": "active: 25.1 µM"},
      {"compound": "CC(=O)c1c(C)[nH]c(C(=O)Nc2ccc(C)cn2)c1C", "Potency": "inconclusive: 89.1 µM [inhibitor, single point]"},
      {"compound": "NC(N)=N/N=C/c1ccc(OCc2ccccc2)cc1", "Potency": "inconclusive: 89.1 µM [inhibitor, partial curve, poor fit]"},
      {"compound": "O=C(O)c1ccc(N/N=C/c2ccc3nccnc3c2)cc1", "Potency": "active: 50.1 µM"},
      {"compound": "CCOc1ccc(CC(=O)Nc2sc(Cc3ccccc3)cc2C(N)=O)cc1OCC", "Potency": "active: 2.51 µM"},
      {"compound": "CCSc1nc2sc3c(c2c(=O)n1-c1ccc(C)cc1)CCN(C)C3", "Potency": "inconclusive: 56.2 µM [inhibitor, partial curve, poor fit]"},
      {"compound": "Cc1coc2c(C)c3oc(=O)c(CCC(=O)NCCC(=O)O)c(C)c3cc12", "Potency": "inactive"},
      {"compound": "CCOC(=O)N1CCC(NC(=S)Nc2ccc3nc(N4CCN(CC)CC4)cc(C)c3c2)CC1", "Potency": "active: 25.1 µM"},
      {"compound": "Cc1ccccc1-n1c(SCC(=O)N2CCCCC2)nc(O)cc1=O", "Potency": "inconclusive: 11.2 µM [inhibitor, full curve]"},
      {"compound": "CCN(CCn1cccn1)C(=O)CC1C(=O)NCCN1Cc1ccc(F)c(F)c1", "note": "(configuration not stated)", "Potency": "inconclusive: 79.4 µM [inhibitor, single point]"},
      {"compound": "Cc1ccc2ccc3cc(C(=O)Nc4ccc(C)c(F)c4)nc3c2[nH]1", "Potency": "inconclusive: 22.4 µM [inhibitor, partial curve, poor fit]"},
      {"compound": "Cc1ccc(-c2cc(C(=O)Nc3ccc(S(=O)(=O)Nc4nccs4)cc3)c3ccccc3n2)c(C)c1", "Potency": "active: 28.2 µM"},
      {"compound": "CC(=O)N1CCCC1c1nc2ccccc2n1Cc1cc(C)ccc1C", "note": "(configuration not stated)", "Potency": "inactive"},
      {"compound": "Cc1cc(NS(=O)(=O)c2ccc(NC(=O)c3cccnc3)cc2)nc(C)n1", "Potency": "inactive"},
      {"compound": "O=C(NN1C(=O)C2C3C=CC(C3)C2C1=O)c1ccco1", "note": "(configuration not stated)", "Potency": "active: 12.6 µM"},
      {"compound": "Cc1ccc(C(=O)Nc2sc(C(=O)N(C)C)c(C)c2C#N)cc1", "Potency": "inconclusive: 31.6 µM [inhibitor, single point]"},
      {"compound": "Cc1ccc(C(=O)COC(=O)c2cnccn2)cc1[N+](=O)[O-]", "Potency": "inconclusive: 39.8 µM [inhibitor, single point]"},
      {"compound": "CCC(Oc1ccccc1)C(=O)Nc1ccccn1", "note": "(configuration not stated)", "Potency": "inconclusive: 79.4 µM [inhibitor, partial curve, poor fit]"},
      {"compound": "Cn1c(=O)n(C)c2cc(N3CCOCC3)c(NS(=O)(=O)c3ccc(Br)cc3)cc21", "Potency": "inconclusive: 8.91 µM [inhibitor, partial curve]"},
      {"compound": "COC(=O)Cn1c(CCC(=O)O)ccc1-c1ccccc1", "Potency": "inconclusive: 89.1 µM [inhibitor, single point]"},
      {"compound": "c1ccc2c(c1)CCN2CCN1CCc2ccccc21", "Potency": "active: 3.55 µM"},
      {"compound": "O=C(C[n+]1ccc2ccccc2c1)c1ccccc1", "Potency": "inconclusive: 79.4 µM [inhibitor, partial curve, poor fit]"},
      {"compound": "CC(C)(C)Cc1nnc(NC(=O)c2cc(-c3ccccc3)nc3ccccc23)s1", "Potency": "inconclusive: 63.1 µM [inhibitor, partial curve, poor fit]"},
      {"compound": "Cc1ccccc1C([O-])=Nc1ccc[n+](-c2nc3ccccc3nc2NS(=O)(=O)c2ccccc2)c1", "Potency": "inconclusive: 50.1 µM [inhibitor, partial curve]"},
      {"compound": "COc1ccc(Br)cc1C1CC(=O)N2CN(Cc3ccccc3)CSC2=C1C#N", "note": "(configuration not stated)", "Potency": "active: 1.41 µM"},
      {"compound": "COc1cccc(N2C(=O)CC(N3CCN(S(=O)(=O)c4ccccc4)CC3)C2=O)c1", "note": "(configuration not stated)", "activity, negative = inhibition": "inconclusive: -66.5% [inhibitor]"},
      {"compound": "O=C(COC(=O)c1ccc(S(=O)(=O)NCc2ccco2)cc1)Nc1ccc(Cl)cn1", "Potency": "active: 50.1 µM"},
      {"compound": "Cc1cc2ncc(S(C)(=O)=O)c(N)n2n1", "Potency": "inactive"},
      {"compound": "O=C(CSc1nnc(Cc2cc(=O)[nH]c(=O)[nH]2)n1-c1ccccc1)N1CCCCC1", "Potency": "inconclusive: 89.1 µM [inhibitor, single point]"},
      {"compound": "O=C(CNCc1cccc(Cl)c1)N1CCc2ccccc2C1", "Potency": "active: 14.1 µM"},
      {"compound": "O=C(NCCNC1CCC(c2ccccc2)CC1)c1cccs1", "note": "(configuration not stated)", "Potency": "active: 28.2 µM"},
      {"compound": "COc1cc2c(cc1OC)CN(c1ccc([N+](=O)[O-])cc1C#N)CC2", "Potency": "inconclusive: 28.2 µM [inhibitor, single point]"},
      {"compound": "Cc1ccc(CCNS(=O)(=O)c2ccc3c(c2)CCN3C(=O)CCC(=O)O)cc1", "Potency": "inactive"},
      {"compound": "Cc1ccc(C2(c3noc(CN4C[C@@H](C)O[C@@H](C)C4)n3)CCCC2)cc1", "Potency": "inactive"},
      {"compound": "CCOc1ccc(-n2c(-c3ccco3)n[nH]c2=S)cc1", "Potency": "active: 3.16 µM"}
    ]}
  ]
}
